This is an account of results in article PMC4336329 (PLoS ONE, 2015).

SMILES strings stand for the structures. The campaign covered roughly 310,000 compounds. About 14,000 (4.5%) showed an effect of 50% or more. The effect is printed as a negative number. The list shows a part of the results.
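Also: peak tail current of the secondary pulse compared with the same well before compound.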

For the assay, the target named is human ether-à-go-go-related gene (hERG) potassium channel (human, UniProt Q12809). Nature of the assay: primary screen, population patch clamp on CHO cells stably expressing hERG.
human ether-à-go-go-related gene (hERG) potassium channel, sequence (Q12809 whole entry, looked up): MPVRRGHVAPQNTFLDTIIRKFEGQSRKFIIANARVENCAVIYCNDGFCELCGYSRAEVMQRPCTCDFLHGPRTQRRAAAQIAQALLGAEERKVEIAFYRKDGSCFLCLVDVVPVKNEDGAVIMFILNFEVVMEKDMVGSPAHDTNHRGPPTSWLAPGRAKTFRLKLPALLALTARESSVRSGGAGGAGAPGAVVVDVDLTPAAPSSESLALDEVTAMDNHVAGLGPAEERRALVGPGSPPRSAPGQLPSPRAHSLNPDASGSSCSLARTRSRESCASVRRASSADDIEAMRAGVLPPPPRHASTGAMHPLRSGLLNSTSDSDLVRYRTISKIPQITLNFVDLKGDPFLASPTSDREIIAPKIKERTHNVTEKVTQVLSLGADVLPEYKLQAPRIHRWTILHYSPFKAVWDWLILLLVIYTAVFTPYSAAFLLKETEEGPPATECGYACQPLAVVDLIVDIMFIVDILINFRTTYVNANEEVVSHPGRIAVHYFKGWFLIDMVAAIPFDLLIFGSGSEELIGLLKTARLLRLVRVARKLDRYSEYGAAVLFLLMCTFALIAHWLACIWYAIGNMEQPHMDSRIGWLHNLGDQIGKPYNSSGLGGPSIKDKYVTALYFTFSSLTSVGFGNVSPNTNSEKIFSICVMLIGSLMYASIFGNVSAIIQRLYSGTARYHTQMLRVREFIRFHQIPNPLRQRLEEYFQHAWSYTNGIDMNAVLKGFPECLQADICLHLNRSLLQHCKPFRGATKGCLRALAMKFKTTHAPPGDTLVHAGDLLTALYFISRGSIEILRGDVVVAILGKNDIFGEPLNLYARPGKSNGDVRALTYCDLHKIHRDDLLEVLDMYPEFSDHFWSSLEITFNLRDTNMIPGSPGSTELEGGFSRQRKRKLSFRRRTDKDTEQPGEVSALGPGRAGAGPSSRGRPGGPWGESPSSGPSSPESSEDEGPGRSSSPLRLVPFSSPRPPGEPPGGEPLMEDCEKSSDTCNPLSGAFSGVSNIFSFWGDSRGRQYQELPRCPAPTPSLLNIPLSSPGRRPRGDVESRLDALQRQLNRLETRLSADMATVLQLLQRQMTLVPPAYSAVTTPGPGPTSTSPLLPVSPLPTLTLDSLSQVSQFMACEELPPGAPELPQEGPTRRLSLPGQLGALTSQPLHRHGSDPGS
As for `CNC(=S)Nc1cc2oc3ccccc3c2cc1OC`, the “hERG current change (%, negative = inhibition) at 10uM” value stood at 8.7%.
Under `COc1cccc(CN(C)C(=O)CCN(c2ccccc2)S(=O)(=O)c2ccc(C)cc2)c1OC` stands -30.4%; under `Cc1ccc2nc(NC(=O)C3CCN(C(=O)c4ccc(F)cc4)CC3)sc2c1`, -20.1%; under `Cl.Clc1ccc2nsnc2c1NC1=NCCN1`, -3%.
Take `COc1ccc(/C(C)=N/NC(=O)CNC(=O)c2ccncc2)cc1`: the “hERG current change (%, negative = inhibition) at 10uM” value is listed as 19.7%.
Regarding `COc1ccccc1C(=O)Nc1nc2ccccc2[nH]1`, the “hERG current change (%, negative = inhibition) at 10uM” value worked out at 12.2%.
Under `OCCN1CCN(Cc2cc(Br)cc(Br)c2O)CC1` stands -60.8%.
Regarding `COc1cc(C(=O)N(C)C2CCCN(Cc3ccccc3F)C2)cc(OC)c1OC` (centres unmarked), the “hERG current change (%, negative = inhibition) at 10uM” value is given as 8.36%.
Turning to `CC(C)c1nc(SCC(=O)NC2CCCC2)c2c(=O)n(C)c(=O)n(C)c2n1`, the “hERG current change (%, negative = inhibition) at 10uM” value amounted to 9.6%.
To `COc1ccccc1OCC(=O)NCCCn1ccnc1` belongs 7.02%; to `Cc1cccc(NC(=O)c2cc(-c3cc(C)cc(C)c3O)n[nH]2)c1`, 31.2%.
To `O=S(=O)(O/N=C1\CCCc2ccccc21)c1ccc(Cl)cc1` belongs 4.69%; to `Cc1cc(N/N=C/c2ccc(N(C)C)cc2)nc(NCc2ccccc2)n1`, 9.69%.
To `COc1ccc(S(=O)(=O)N2CCCCC2)cc1C(C)C` belongs -1.61%; to `Cc1cccc(C)c1NC(=O)CNC(=O)C1COc2ccccc2O1` (centres unmarked), 8.47%.
As to `Cc1ccccc1N1C(=O)C(Oc2ccc(Cl)cc2)C1CNCC1CCCO1.Cl` (centres unmarked), the “hERG current change (%, negative = inhibition) at 10uM” value is on record as -18%.
To `Cc1cccnc1NC(=O)CCn1c(=O)oc2ccccc21` belongs 2.77%; to `COc1ccc(C(=O)Nn2c(C)nc3ccccc3c2=O)cc1`, 1.97%; to `Cc1ccc(C)c(C(=O)N(Cc2nc(-c3ccc(Cl)cc3)no2)C(C)C)c1`, -1.19%.
Under `O=C(COC(=O)CCN1C(=O)C2CC=CCC2C1=O)NCCc1ccc(F)cc1` (centres unmarked) stands -14.1%; under `CCN(CC)C(=O)CSc1nc2ncc(Cl)cc2[nH]1`, 3.81%.
Under `Cc1cc(N2CCN(C)CC2)nc2ccc(NC(=S)N3CCN(c4ccccn4)CC3)cc12` stands -27.7%; under `O=C(Nc1ccc(-c2nc3cccnc3s2)cc1)c1ccc(Cl)nc1`, 2.49%; under `CCOC(=O)N1CCN(C(=O)C2CCC(CNS(=O)(=O)c3ccc(Cl)cc3)CC2)CC1` (centres unmarked), -10.1%.
Turning to `CCc1cc2c(-c3ccccc3)cc(=O)oc2cc1OCC(C)=O`, the “hERG current change (%, negative = inhibition) at 10uM” value is reported as -6.98%.
For `COC(=O)c1nc(-c2ccccc2)oc1N1CCOCC1`, the “hERG current change (%, negative = inhibition) at 10uM” value was determined as 13.8%.
With `Cc1ccc(C)c(CNS(=O)(=O)c2c(C)[nH]c(C)c2C(=O)N2CCCC2)c1`, the “hERG current change (%, negative = inhibition) at 10uM” value was -47.1%.
For the compound `COc1cc(SC)ccc1C(=O)Nc1nc(C)cc(C)n1`, the “hERG current change (%, negative = inhibition) at 10uM” value is listed as 5.75%.
Consider `O=C(O)c1ccc(CSc2nc3ccc(NC(=O)c4ccccc4C(=O)O)cc3s2)cc1`, for which the “hERG current change (%, negative = inhibition) at 10uM” value amounted to 20.8%.
To `CCCC(=O)N(CCN1CCOCC1)c1nc2ccc(OCC)cc2s1.Cl` belongs -29.9%; to `CCc1cc(=O)oc2cc(OCC(=O)NCCCn3ccnc3)c(Cl)cc12`, -28.5%.
Under `O=S(=O)(Nc1ccc(S(=O)(=O)Nc2nccs2)cc1)c1ccc(Br)cc1` stands 14.5%.
Consider `COc1ccc(CN2C3CCC2CC(NC(=O)c2cc(OC)c(OC)c(OC)c2)C3)cc1` (centres unmarked), for which the “hERG current change (%, negative = inhibition) at 10uM” value is -31.6%.
Under `CCOC(=O)/C=C1\CC(=O)Nc2cc(C)c(C)cc2N1` stands -4.79%; under `Cc1cc(-c2ccccc2)n(-c2cc(N/N=C/c3ccccc3O)ncn2)n1`, -10.5%.
Consider `CN1C(=O)[C@H]2[C@@H](C3CC3)N3C(=O)CN(Cc4ccc(-c5ccccc5)cc4)C(=O)[C@@]3(C)[C@H]2C1=O`, for which the “hERG current change (%, negative = inhibition) at 10uM” value is recorded as -43.2%.
With `CCOC(=O)N1CCN(C(=O)CCCCn2c(=S)[nH]c3ccsc3c2=O)CC1`, the “hERG current change (%, negative = inhibition) at 10uM” value is recorded as -0.808%.
As for `C=CCN(C(=O)Nc1ccc(Cl)cc1)C1CC(=O)N(c2ccc(OC)cc2)C1=O` (centres unmarked), the “hERG current change (%, negative = inhibition) at 10uM” value is reported as -14.8%.
Under `CCOc1ccc(C(=O)CCc2nc3ccccc3s2)cc1` stands -31.8%; under `CC(C)(C)NC(=O)C1Cc2ccccc2CN1S(=O)(=O)c1ccc(F)cc1` (centres unmarked), -0.712%.
To `COCCOC(=O)C1=C(C)NC(=O)NC1c1cn(-c2ccccc2)nc1-c1cccs1` (centres unmarked) belongs 1.15%.
Under `C#CCOCCOCCOCCNc1nc(N2CCN(C(=O)[C@H]([C@@H](C)O)n3cc(CCCC[NH3+])nn3)CC2)nc(N2CCN(C(=O)[C@H](CCCC[NH3+])n3cc(CCC(=O)O)nn3)CC2)n1.[Cl-]` stands 14.3%; under `CC(C)C(NC(=O)C1CCCCC1)C(=O)NCCc1ccccc1` (centres unmarked), 3.14%.
As for `CN1CCN(CC(=O)Nc2ccccc2C(F)(F)F)CC1.O=C(O)C(=O)O`, the “hERG current change (%, negative = inhibition) at 10uM” value worked out at 22.2%.
